Measurements: article PMC4336329 (PLoS ONE, 2015)
Out of some 310,000 compounds screened, about 2,200 (0.71%) showed an effect of 50% or more. The effect is printed as a negative number. Some of the results follow.

Target: human ether-à-go-go-related gene (hERG) potassium channel (human, UniProt Q12809)
Assay: primary screen, population patch clamp on CHO cells stably expressing hERG

Sequence of human ether-à-go-go-related gene (hERG) potassium channel (Q12809 whole entry, looked up): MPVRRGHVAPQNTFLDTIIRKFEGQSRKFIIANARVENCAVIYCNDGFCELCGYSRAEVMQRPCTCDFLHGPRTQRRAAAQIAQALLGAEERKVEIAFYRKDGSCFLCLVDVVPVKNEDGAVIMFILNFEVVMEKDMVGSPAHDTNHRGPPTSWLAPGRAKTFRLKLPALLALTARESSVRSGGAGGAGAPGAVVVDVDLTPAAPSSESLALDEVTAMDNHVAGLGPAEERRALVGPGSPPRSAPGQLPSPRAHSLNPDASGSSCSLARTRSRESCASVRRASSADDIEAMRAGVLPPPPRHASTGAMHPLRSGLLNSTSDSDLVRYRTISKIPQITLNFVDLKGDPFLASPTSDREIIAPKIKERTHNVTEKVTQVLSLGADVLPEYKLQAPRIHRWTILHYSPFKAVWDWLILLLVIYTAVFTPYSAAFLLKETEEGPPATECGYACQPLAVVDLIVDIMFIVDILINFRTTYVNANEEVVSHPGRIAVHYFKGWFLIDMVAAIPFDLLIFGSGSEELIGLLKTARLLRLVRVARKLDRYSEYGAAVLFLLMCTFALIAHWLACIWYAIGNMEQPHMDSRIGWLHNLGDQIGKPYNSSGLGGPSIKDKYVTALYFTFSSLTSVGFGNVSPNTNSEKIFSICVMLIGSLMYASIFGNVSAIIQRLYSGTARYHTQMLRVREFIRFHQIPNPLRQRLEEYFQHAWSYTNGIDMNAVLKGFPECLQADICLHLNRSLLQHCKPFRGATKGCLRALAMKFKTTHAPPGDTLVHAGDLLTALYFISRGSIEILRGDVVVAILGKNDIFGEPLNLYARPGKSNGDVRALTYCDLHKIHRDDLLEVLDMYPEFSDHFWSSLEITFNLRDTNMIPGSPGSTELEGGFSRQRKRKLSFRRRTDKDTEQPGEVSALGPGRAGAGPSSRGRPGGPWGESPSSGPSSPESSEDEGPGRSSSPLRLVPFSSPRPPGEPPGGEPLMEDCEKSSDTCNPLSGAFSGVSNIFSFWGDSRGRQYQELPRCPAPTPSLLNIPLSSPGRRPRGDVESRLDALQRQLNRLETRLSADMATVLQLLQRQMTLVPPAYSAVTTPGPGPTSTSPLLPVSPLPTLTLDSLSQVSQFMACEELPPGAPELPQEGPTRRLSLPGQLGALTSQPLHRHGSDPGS

Structure (SMILES)	hERG current change (%, negative = inhibition) at 1uM
Cc1ccc(NC(=O)CSc2ccc(-c3ccccn3)nn2)c(C)c1	14.1%
CC1(C)Cc2c(sc3ncnc(NN)c23)CO1	7.21%
CSc1ncc(CN2CCCC(C(=O)c3cccc(Cl)c3)C2)cn1 (centres unmarked)	2.26%
Cc1nn(-c2ccc(N3CCOCC3)nn2)c(C)c1CCC(=O)Nc1ccc(F)cc1	14.4%
CC1CC(OC(=O)c2ccccc2)(c2ccccc2)C(C)CN1C (centres unmarked)	10.3%
CCOC(=O)c1c(NC(=O)c2ccoc2C)sc2c1CCC2	14.2%
FC(F)(F)c1cccc(Cn2c3[n+](c4ccc(C(F)(F)F)cc42)CCCCC3)c1.[Cl-]	5.94%
OC(COc1ccc2cc(Br)ccc2c1)CN1CCN(c2ccccn2)CC1 (centres unmarked)	11.4%
OC(C#CCCN1CCCCC1)(c1ccccc1)C1CCCCC1 (centres unmarked)	-1.95%
CCn1c(N2CCN(C(=S)Nc3ccc(OC)cc3)CC2)nc2ccccc21	-44.4%
COc1ccc(C2NC(=O)c3ccccc3O2)c(OC)c1OC (centres unmarked)	10.6%
COC(=O)C1=C(O)/C(=C\c2ccc(CNC(=O)C(=O)Nc3ccc(C)cc3)o2)N=C1C	14.2%
O=C(NCc1ccco1)c1cccc(NC(=O)c2ccco2)c1	2.19%
Cc1cc(C)cc(NC(=S)N2CCC(N(C)CC3CCCO3)CC2)c1 (centres unmarked)	-1.85%
O=C(c1cc2cc(Br)ccc2s1)N1CCOCC1	-0.609%
Cc1[nH]n(-c2ccccc2)c(=O)c1/C=N/N1C(=O)c2cccc3cccc(c23)C1=O	9.42%
CC(=O)Nc1ccc(S(=O)(=O)Nn2cnnc2)cc1	13%
COc1ccc(N=Cc2c(O)n(Cc3cccs3)c(=O)[nH]c2=O)cc1	-5.69%
CSc1ccc(CN2CCCC(N3CCN(c4ccccc4)CC3)C2)cc1 (centres unmarked)	-8.99%
O=S(=O)(c1ccccc1)N1CCN(Cc2ccc(Cl)cc2)CC1	-2.04%
CCc1ccccc1NC(=S)N1CCN(c2cccc(OC)c2)CC1	11.7%
Cc1nc2cc(NCc3ccccc3O)ccc2n1Cc1ccccc1	7.78%
CCOc1ccccc1NC(=O)CCNC(=O)c1ccc(Cl)cc1	35.4%

Structure (SMILES)	hERG current change (%, negative = inhibition) at 1uM
C=CCn1c(=O)n2ncnc2c2c3c(sc21)CCCC3	-12.9%
O=S(=O)(c1cc(Cl)ccc1Cl)n1nnc2ccccc21	8.76%
O=C(c1ccc(F)cc1)C1CCN(C(=S)Nc2ccccc2Cl)CC1	11.7%
CC(=O)Nc1cccc(NC(=O)CSc2nccn2Cc2ccco2)c1	5.74%
NC(=O)C1CCCN1S(=O)(=O)c1ccc2ccccc2c1 (centres unmarked)	-10.9%
O=C(NCCN1CCOCC1)c1csc2c1CCCC2	2.22%
Cc1ccc(-n2nnnc2SCC(=O)NC2CC2)cc1C	-4.87%
CC1CCCCC1NC(=O)c1ccc(S(=O)(=O)NCC2CCCO2)cc1 (centres unmarked)	2.62%
N#Cc1ccc(OCC(=O)N2CCN(S(=O)(=O)c3cccc(Cl)c3)CC2)cc1	-26.9%
CN(C)c1ccc(NC(=O)N2CCOCC2)cc1	1.64%
O=C(CCN1CCN(C/C=C/c2ccccc2)CC1)Nc1ccc(Cl)cc1	-74.1%
Cn1c(=O)c2c(ncn2CC(=O)N2CCCc3ccccc32)n(C)c1=O	6.04%
CC(C)COC(=O)N(C)c1ccc(C(O)(C(F)(F)F)C(F)(F)F)cc1	7.88%
CCOC(=O)c1ccc(NC(=O)COC)cc1	-1.6%
Cc1ccc(S(=O)(=O)Nc2cccc(-c3ccc(N4CCCCCC4)nn3)c2)c(C)c1	11.5%
Brc1ccc2[nH]c3c(NCc4ccccn4)ncnc3c2c1	14.6%
CCOc1ccccc1NC(=O)CCNS(=O)(=O)c1cccc2nonc12	18%
CC1(C)CC2(CC(c3ccc(F)cc3)c3ccc(O)cc3O2)NC(=S)N1 (centres unmarked)	9.88%
CC(C)CN1CCN(Cc2ccc(C(F)(F)F)cc2)CC1CCO (centres unmarked)	-30.9%
CCOC(=O)Nc1ccc(NCc2ccc(F)cc2)nc1N.O=C([O-])/C=C\C(=O)[O-]	1.83%
Cc1ccc(S(=O)(=O)NCCC(=O)Nc2ccc(Cl)c(Cl)c2)cc1C	15.3%
S=C(NCCc1ccccc1)NC1CC2CCC(C1)N2Cc1ccccc1 (centres unmarked)	11.6%
Cc1[nH]c2ccccc2c1/C=N/NC(=O)CNC(=O)Cc1ccccc1	9.86%

Structure (SMILES)	hERG current change (%, negative = inhibition) at 1uM
CCC1Oc2ccc(C)cc2N(CC(=O)NCCN2C(C)CCCC2C)C1=O (centres unmarked)	5.56%
COc1ccc(NC2=NC(=S)N(c3ccc(C)cc3)C23CCCCC3)cc1	16.5%
COc1ccc(-n2ncc3c(N4CCC(C)CC4)ncnc32)cc1	2.56%
CCCCCCn1c(=O)[nH]c2c(c1=O)CCC2	11.6%
COc1ccc(C2(C)NC(=O)N(CC(=O)Nc3ccc4c(c3)CCC4)C2=O)cc1OC (centres unmarked)	5.38%
CC(CCc1ccco1)NC(=O)CCc1nnc2ccc(NCc3ccc(Cl)cc3)nn12 (centres unmarked)	5.21%
CCCCc1nc2sc3c(c2c(=O)[nH]1)CCC3	11.5%
Cc1cc(Nc2cc(C)on2)n2ncnc2n1	7.29%
CC(C)(C)c1ccc(CSc2nnc(-c3ccccn3)n2Cc2ccco2)cc1	0.349%
Cc1nc(C)c(C(=O)NCCC(c2ccccc2)c2ccccc2)o1	5.05%
COC(=O)c1c(C(=O)OC)c2cc(C)ccn2c1Cl	-5.26%
CCOC(=O)C1(Cc2cccc(Cl)c2)CCCN(C(=O)C(C)(C)C)C1 (centres unmarked)	13.2%
COc1ccc(-c2nc3ncnn3cc2C)cc1F	8.83%
c1ccc(-n2nnnc2OCCOc2nnnn2-c2ccccc2)cc1	3.62%
O=C(c1cc(COc2cccc(C(F)(F)F)c2)on1)N1CCC(c2ccccc2)CC1	6%
O=C(COC(=O)COc1ccc2ccccc2c1)NCC(F)(F)F	1.83%
CCc1cc2c(=O)c(-c3cnn(-c4ccccc4)c3)c(C(F)(F)F)oc2c(CN(C)C)c1O	10.7%
COc1ccc(N(Cc2nnc3n2CCCCC3)C(=O)Nc2ccccc2)cc1	7.17%
CCC1Oc2ccc(C)cc2N(CC(=O)NCc2ccco2)C1=O (centres unmarked)	7.37%
COc1ccc(C2(CNC(=O)c3ccc(Br)o3)CCOCC2)cc1	13.5%
CC(=O)c1c(C)[nH]c(C(=O)NCc2cccc(Cl)c2)c1C	10.4%
COc1ccc(C(=O)Nc2ccc(N3CCN(C(=O)c4ccccc4C)CC3)cc2)cc1	9.54%
CC1CN(S(=O)(=O)c2ccc(C(=O)Nc3nccs3)cc2)CC(C)O1 (centres unmarked)	12.1%

Structure (SMILES)	hERG current change (%, negative = inhibition) at 1uM
Cc1ccc(OCCNC(=O)c2cc(=O)[nH]c3ccccc23)cc1	10.6%
CC(=O)Nc1cccc(OCCCNC(=O)c2cccc3ccccc23)c1	16.5%
Cc1cc(C)nc(N2CCC(C(=O)O)CC2)n1	-1.09%
CC(C)(C)c1cc(C(=O)NNc2ccc(OC(F)(F)F)cc2)n(Cc2ccccc2)n1	12.2%
COc1ccc([C@@H]2[C@@H]3C(=O)N(C(C)(C)C)C(=O)[C@@H]3[C@]3(Cc4ccccc4)C(=O)N(c4ccc(OC)cc4)C(=O)N23)cc1	19.1%
Cc1cc(C)nc(N2CCCC(C(=O)NC(C)C)C2)n1 (centres unmarked)	4.2%
COc1cccc(CN2CCN(Cc3cc(OC)c(OC)cc3[N+](=O)[O-])CC2)c1.O=C(O)C(=O)O	-18.5%
CCOC(=O)Cc1csc(NS(=O)(=O)c2cc(Cl)ccc2Cl)n1	17.4%
O=C(Cn1c(C(F)(F)F)nc2ccccc21)N/N=C/c1ccco1	7.11%
Cc1nnc(N2CCCC(C(=O)NCc3ccccc3F)C2)c2nn(-c3ccccc3)c(C)c12 (centres unmarked)	-3.35%
CC(=O)Nc1c(-c2ccccc2)nc2cc(C)ccn12	11.7%
COc1ccc(CCN(C)C(=O)c2oc3ccccc3c2C)cc1OC	11.3%
Cc1cccc(CCNC(=O)C2CCN(S(=O)(=O)N3CCOCC3)CC2)c1	10.3%
Cc1c(C(=O)N2CCOCC2)c(S(=O)(=O)Nc2ccc(OC(F)(F)F)cc2)c(C)n1C	4.73%
COc1ccccc1CNC(=O)CCC(=O)N1CCOc2ccc(Cl)cc21	10.9%
O=C(Cn1ncc2c3ccccc3n(Cc3ccccc3)c2c1=O)NC1CCCC1	8.9%
COc1ccc(C(CNC(=O)c2oc3ccc(C)cc3c2C)N2CCCCC2)cc1 (centres unmarked)	11.2%
COc1cc(S(=O)(=O)n2nc(C)cc2C)c(OC)cc1Cl	4.33%
O=C1CCN(C(=O)Nc2ccccc2Cl)N1	12%
Cc1ccccc1OCC(=O)N1N=C(C(F)(F)F)CC1(O)C(C)(C)C (centres unmarked)	12.2%
